Structures can show the parent of a compound that is named as a salt. ± gives the standard deviation of the averaged measurements. This is one part of the list.
Test system: OVCAR8
Test: cell count relative to DMSO vehicle (fold change); OVCAR8 is a high-grade serous ovarian cancer line and CX-5461 an RNA polymerase I inhibitor; higher = more surviving senescent cells (less killing)
Conditions: senescence inducer: CX-5461 3 µM 48 h, then 6 d recovery (CX senescent), exposure time 24 h

Q: How did the cell count (compound dose 1 µM) turn out when COc1cc(O)c2c(=O)cc(-c3ccc(OC)c(-c4c(O)cc(O)c5c(=O)cc(-c6ccc(O)cc6)oc45)c3)oc2c1 [Ginkgetin] was run?
A: 1.12 ± 0.019

Q: And the cell count (compound dose 5 µM)?
A: 1.07 ± 0.03

Q: How did the cell count (compound dose 1 µM) turn out when CC1(C)CCC(c2ccc(Cl)cc2)=C(CN2CCN(c3ccc(C(=O)NS(=O)(=O)c4ccc(N[C@H](CCN5CCOCC5)CSc5ccccc5)c(S(=O)(=O)C(F)(F)F)c4)cc3)CC2)C1 [Navitoclax] was run?
A: 0.465 ± 0.041

Q: And the cell count (compound dose 5 µM)?
A: 0.425 ± 0.048

Q: What does the source list for CC(C)C[C@H](NC(=O)[C@H](Cc1ccccc1)NC(=O)c1cnccn1)B(O)O [Bortezomib]?
A: cell count (compound dose 1 µM): 1.14 ± 0.037; cell count (compound dose 5 µM): 0.442 ± 0.043

Q: Which results are given for COc1ccc(-c2coc3cc(O)ccc3c2=O)cc1?
A: cell count (compound dose 1 µM): 1.03 ± 0.015; cell count (compound dose 5 µM): 1.12 ± 0.023

Q: How did the cell count (compound dose 1 µM) turn out when COc1ncc(-c2nc3c(n2C(C)C)[C@H](c2ccc(Cl)cc2)N(c2cc(Cl)cn(C)c2=O)C3=O)c(OC)n1 [Siremadlin] was run?
A: 1.05 ± 0.014

Q: And the cell count (compound dose 5 µM)?
A: 1.18 ± 0.097

Q: What does the source list for CCCCc1ccc(NC(C)=O)c(C)c1?
A: cell count (compound dose 1 µM): 0.843 ± 0.018; cell count (compound dose 5 µM): 1.11 ± 0.28

Q: Which results are given for O=C1NC(=O)/C(=C\c2cccc(C(F)(F)F)c2)S1?
A: cell count (compound dose 1 µM): 1.09 ± 0.38; cell count (compound dose 5 µM): 1.12 ± 0.17

Q: How did the cell count (compound dose 1 µM) turn out when O=C1/C(=C/c2cccs2)CC/C1=C\c1cccs1 was run?
A: 1.18 ± 0.22

Q: And the cell count (compound dose 5 µM)?
A: 1.13 ± 0.17

Q: For C[N+](C)(C)CCOP(=O)(O)OP(=O)([O-])OC[C@H]1O[C@@H](n2ccc(N)nc2=O)[C@H](O)[C@@H]1O, which cell count (compound dose 1 µM) is on record?
A: 1.16 ± 0.18

Q: What about the cell count (compound dose 5 µM) of the same compound?
A: 0.991 ± 0.054

Q: What does the source list for CC1(C)C[C@@H](O)[C@]2(C)CC[C@]3(C)C(=CC[C@@H]4[C@@]5(C)CC[C@H](O)[C@](C)(CO)[C@@H]5CC[C@]43C)[C@@H]2C1 [Soyasapogenol B]?
A: cell count (compound dose 1 µM): 1.1 ± 0.15; cell count (compound dose 5 µM): 1.15 ± 0.16

Q: What does the source list for C[C@@H]1O[C@@H](O[C@H]2[C@H](O[C@H]3[C@H](O[C@H]4CC[C@]5(C)[C@H]6CC=C7[C@@H]8CC(C)(C)CC[C@]8(C(=O)O)CC[C@@]7(C)[C@]6(C)CC[C@H]5C4(C)C)OC[C@H](O)[C@@H]3O)O[C@H](CO)[C@@H](O)[C@@H]2O)[C@H](O)[C@H](O)[C@H]1O [Raddeanin A]?
A: cell count (compound dose 1 µM): 1.4 ± 0.37; cell count (compound dose 5 µM): 0.008 ± 0.0014

Q: Which results are given for CCCCCN(C)CCC(O)(P(=O)(O)O)P(=O)(O)O?
A: cell count (compound dose 1 µM): 1.06 ± 0.097; cell count (compound dose 5 µM): 1.19 ± 0.28

Q: Which results are given for CCS(=O)(=O)Nc1ccc(Oc2ccc(F)cc2F)c(-c2cn(C)c(=O)c3[nH]ccc23)c1 [Mivebresib]?
A: cell count (compound dose 1 µM): 1.071 ± 0.0064; cell count (compound dose 5 µM): 1.03 ± 0.061

Q: Which results are given for Oc1ccc2c(c1)OC[C@]1(O)Cc3cc(O)c(O)cc3[C@H]21 [Brazilin]?
A: cell count (compound dose 1 µM): 1.07 ± 0.11; cell count (compound dose 5 µM): 1.044 ± 0.0028

Q: What does the source list for O=c1ccc2cc3ccoc3cc2o1 [Psoralen]?
A: cell count (compound dose 1 µM): 1.1 ± 0.14; cell count (compound dose 5 µM): 0.929 ± 0.1

Q: Which results are given for C=C(C)[C@@H]1CC[C@]2(C(=O)O)CC[C@]3(C)[C@H](CC[C@@H]4[C@@]5(C)CC[C@H](O)C(C)(C)[C@@H]5CC[C@]43C)[C@@H]12 [Betulinic acid]?
A: cell count (compound dose 1 µM): 1.13 ± 0.26; cell count (compound dose 5 µM): 1.1 ± 0.19

Q: For CONC(=O)c1ccccc1Nc1cc(Nc2cc(C)nn2C(C)C)ncc1Cl, which cell count (compound dose 1 µM) is on record?
A: 1.2 ± 0.016

Q: And the cell count (compound dose 5 µM)?
A: 1.26 ± 0.15

Q: For C=CCc1ccc(O)c(OC)c1, which cell count (compound dose 1 µM) is on record?
A: 1.11 ± 0.068

Q: What about the cell count (compound dose 5 µM) of the same compound?
A: 1.08 ± 0.11

Q: Which cell count (compound dose 1 µM) does the source give for OC[C@@H](O)[C@@H](O)[C@H](O)[C@H](O)CO here?
A: 1.04 ± 0.11

Q: And the cell count (compound dose 5 µM)?
A: 1.05 ± 0.092

Q: For Oc1ccc(C2CNCCc3c2cc(O)c(O)c3Cl)cc1 (stereo unspecified), which cell count (compound dose 1 µM) is on record?
A: 1.13 ± 0.074

Q: What about the cell count (compound dose 5 µM) of the same compound?
A: 0.977 ± 0.089

Q: Which results are given for CC(C(=O)O)c1cccc(Oc2ccccc2)c1 (stereo unspecified) [Fenoprofen (Calcium hydrate)]?
A: cell count (compound dose 1 µM): 1.17 ± 0.1; cell count (compound dose 5 µM): 1.15 ± 0.25

Q: For O=C1NC(=O)/C(=C/c2ccc3nccc(-c4ccncc4)c3c2)S1, which cell count (compound dose 1 µM) is on record?
A: 0.967 ± 0.2

Q: What about the cell count (compound dose 5 µM) of the same compound?
A: 0.848 ± 0.12

Q: O=C1NC(=O)C(c2ccccc2[N+](=O)[O-])=C1Nc1ccc(O)c(Cl)c1 was tested. Which cell count (compound dose 1 µM) did it give?
A: 1.25 ± 0.2

Q: And the cell count (compound dose 5 µM)?
A: 1.21 ± 0.25

Q: Which results are given for OCCN1CCN(CC/C=C2/c3ccccc3Sc3ccc(C(F)(F)F)cc32)CC1 [Flupentixol dihydrochloride]?
A: cell count (compound dose 1 µM): 1.12 ± 0.13; cell count (compound dose 5 µM): 1.137 ± 0.0035

Q: What does the source list for CC(=O)Nc1cccc(-n2c(=O)n(C3CC3)c(=O)c3c(Nc4ccc(I)cc4F)n(C)c(=O)c(C)c32)c1?
A: cell count (compound dose 1 µM): 1.18 ± 0.073; cell count (compound dose 5 µM): 1.06 ± 0.035

Q: With CC(C)c1c(C(=O)Nc2ccccc2)c(-c2ccccc2)c(-c2ccc(F)cc2)n1CC[C@@H](O)C[C@@H](O)CC(=O)O [Atorvastatin (hemicalcium salt)] as the compound, how does the cell count (compound dose 1 µM) read?
A: 1.15 ± 0.26

Q: And the cell count (compound dose 5 µM)?
A: 0.923 ± 0.14

Q: Which results are given for Cc1ncc(C[n+]2csc(CCO)c2C)c(N)n1?
A: cell count (compound dose 1 µM): 0.995 ± 0.023; cell count (compound dose 5 µM): 1.07 ± 0.082

Q: For CC(C)(C)c1cnc(CSc2cnc(NC(=O)C3CCNCC3)s2)o1, which cell count (compound dose 1 µM) is on record?
A: 0.996 ± 0.15

Q: And the cell count (compound dose 5 µM)?
A: 1.19 ± 0.019

Q: How did the cell count (compound dose 1 µM) turn out when COc1ccc(-c2cc(=O)c3c(O)c(OC)c(OC)cc3o2)cc1O [Eupatorin] was run?
A: 1.17 ± 0.1

Q: And the cell count (compound dose 5 µM)?
A: 1.17 ± 0.23

Q: Which cell count (compound dose 1 µM) does the source give for CC(=Cc1ccc(C(=O)O)cc1)c1ccc2c(c1)C(C)(C)CCC2(C)C here?
A: 1.07 ± 0.11

Q: And the cell count (compound dose 5 µM)?
A: 1.02 ± 0.044

Q: COC(=O)Nc1nc2cc(C(=O)c3cccs3)ccc2[nH]1 [Nocodazole] was tested. Which cell count (compound dose 1 µM) did it give?
A: 1.21 ± 0.051

Q: What about the cell count (compound dose 5 µM) of the same compound?
A: 1.15 ± 0.03

Q: Which cell count (compound dose 1 µM) does the source give for CN1CCN(C(=O)/C=C/c2ccc([N+](=O)[O-])o2)CC1 here?
A: 1.14 ± 0.16

Q: What about the cell count (compound dose 5 µM) of the same compound?
A: 1.07 ± 0.086

Q: For CC(=O)Nc1ccc(C(=O)Nc2ccccc2N)cc1 [Tacedinaline (CI994)], which cell count (compound dose 1 µM) is on record?
A: 1.2 ± 0.26

Q: And the cell count (compound dose 5 µM)?
A: 1.17 ± 0.57

Q: What does the source list for COc1cc2c(Nc3ccc(NC(=O)c4ccccc4)cc3)ncnc2cc1OCCCN1CCOCC1?
A: cell count (compound dose 1 µM): 1.15 ± 0.12; cell count (compound dose 5 µM): 1.12 ± 0.088

Q: Which cell count (compound dose 1 µM) does the source give for O=S(=O)(c1ccc2c(c1)C(=NO)c1cc(S(=O)(=O)N3CCCCC3)ccc1-2)N1CCCCC1 here?
A: 0.027 ± 0.0042

Q: And the cell count (compound dose 5 µM)?
A: 0.0685 ± 0.0064

Q: Which cell count (compound dose 1 µM) does the source give for CNC(=O)COc1cc2cc(Nc3nc(N4C[C@H](C)C[C@H](C)C4)ncc3Cl)ccc2n(C)c1=O here?
A: 1.02 ± 0.052

Q: And the cell count (compound dose 5 µM)?
A: 1.07 ± 0.028

Q: CC1(C)CC[C@]2(C(=O)O)CC[C@]3(C)C(=CC[C@@H]4[C@@]5(C)CC[C@H](O[C@@H]6O[C@H](C(=O)O)[C@@H](O)[C@H](O[C@@H]7OC[C@@H](O)[C@H](O)[C@H]7O)[C@H]6O)C(C)(C)[C@@H]5CC[C@]43C)[C@@H]2C1 [Momordin Ic] was tested. Which cell count (compound dose 1 µM) did it give?
A: 1.02 ± 0.037

Q: And the cell count (compound dose 5 µM)?
A: 1.12 ± 0.07

Q: What does the source list for COc1ccc([C@@H]2CC(=O)c3c(O)cc(O)cc3O2)cc1O [Hesperetin]?
A: cell count (compound dose 1 µM): 1.16 ± 0.25; cell count (compound dose 5 µM): 1.2 ± 0.29

Q: With O=c1cc(-c2ccccc2)oc2c(O)c(O)ccc12 as the compound, how does the cell count (compound dose 1 µM) read?
A: 0.998 ± 0.15

Q: What about the cell count (compound dose 5 µM) of the same compound?
A: 0.995 ± 0.12

Q: Oc1cc(O)c2c(c1)O[C@H](c1ccc(O)c(O)c1)[C@@H](O)C2 was tested. Which cell count (compound dose 1 µM) did it give?
A: 0.931 ± 0.031

Q: And the cell count (compound dose 5 µM)?
A: 0.977 ± 0.14

Q: With COc1cc(C(=O)OCCCCN=C(N)N)cc(OC)c1O[C@@H]1O[C@H](C(=O)O)[C@@H](O)[C@H](O)[C@H]1O as the compound, how does the cell count (compound dose 1 µM) read?
A: 1.07 ± 0.11

Q: What about the cell count (compound dose 5 µM) of the same compound?
A: 1.11 ± 0.29

Q: With C=Cc1cc(O)cc2nc(-c3ccc(O)c(F)c3)oc12 [Prinaberel] as the compound, how does the cell count (compound dose 1 µM) read?
A: 1.17 ± 0.12

Q: What about the cell count (compound dose 5 µM) of the same compound?
A: 1.21 ± 0.24

Q: CN[C@@H](C)C(=O)N[C@H](C(=O)N1CCC[C@H]1c1nc(C(=O)c2ccc(F)cc2)cs1)C1CCCCC1 was tested. Which cell count (compound dose 1 µM) did it give?
A: 0.591 ± 0.083

Q: And the cell count (compound dose 5 µM)?
A: 0.617 ± 0.055
